Test results as given in paper PMC4336329 (PLoS ONE, 2015).
Screen size: about 310,000 compounds; about 2,200 (0.71%) showed an effect of 50% or more. Effects have a minus sign here. Some of the results follow.

Each molecule was assayed against human ether-à-go-go-related gene (hERG) potassium channel (human, UniProt Q12809) (assay: primary screen, population patch clamp on CHO cells stably expressing hERG).
Sequence of human ether-à-go-go-related gene (hERG) potassium channel (Q12809 whole entry, looked up): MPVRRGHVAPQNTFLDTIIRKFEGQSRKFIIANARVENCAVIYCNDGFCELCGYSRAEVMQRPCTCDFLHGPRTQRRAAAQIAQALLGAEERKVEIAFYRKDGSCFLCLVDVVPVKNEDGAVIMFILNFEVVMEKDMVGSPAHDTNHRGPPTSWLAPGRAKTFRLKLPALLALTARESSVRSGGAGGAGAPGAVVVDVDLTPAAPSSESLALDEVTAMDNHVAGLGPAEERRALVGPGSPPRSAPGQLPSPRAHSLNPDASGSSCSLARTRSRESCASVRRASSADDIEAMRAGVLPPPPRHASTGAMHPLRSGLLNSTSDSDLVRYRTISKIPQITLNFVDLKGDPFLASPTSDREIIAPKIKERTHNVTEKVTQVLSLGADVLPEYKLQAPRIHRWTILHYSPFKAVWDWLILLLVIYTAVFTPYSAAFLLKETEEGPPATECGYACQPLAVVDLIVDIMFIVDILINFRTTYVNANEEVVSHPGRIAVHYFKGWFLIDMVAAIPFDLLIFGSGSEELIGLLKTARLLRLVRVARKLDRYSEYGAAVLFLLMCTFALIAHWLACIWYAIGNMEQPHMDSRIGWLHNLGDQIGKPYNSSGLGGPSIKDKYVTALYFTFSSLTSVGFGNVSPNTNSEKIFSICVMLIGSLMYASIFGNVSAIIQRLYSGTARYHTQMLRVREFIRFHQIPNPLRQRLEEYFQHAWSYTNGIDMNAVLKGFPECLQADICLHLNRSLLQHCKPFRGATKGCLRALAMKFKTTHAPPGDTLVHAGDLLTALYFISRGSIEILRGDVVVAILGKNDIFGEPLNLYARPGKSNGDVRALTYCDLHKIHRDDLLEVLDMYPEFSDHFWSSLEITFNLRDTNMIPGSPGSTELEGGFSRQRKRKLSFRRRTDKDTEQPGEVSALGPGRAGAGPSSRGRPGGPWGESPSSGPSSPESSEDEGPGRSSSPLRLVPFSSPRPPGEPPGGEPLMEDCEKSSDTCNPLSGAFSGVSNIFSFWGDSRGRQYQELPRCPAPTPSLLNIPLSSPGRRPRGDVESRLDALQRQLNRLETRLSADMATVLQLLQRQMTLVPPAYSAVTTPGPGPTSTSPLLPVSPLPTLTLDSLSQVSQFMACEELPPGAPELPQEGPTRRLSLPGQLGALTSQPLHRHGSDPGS

| SMILES | hERG current change (%, negative = inhibition) at 1uM [%] |
| --- | --- |
| COC(=O)c1ccc(NC(=S)NCc2ccco2)cc1 | 6.7 |
| O=C(O)c1ccccc1C(=O)Nc1cccc([N+](=O)[O-])c1 | 12.7 |
| O=C1c2ccccc2S(=O)(=O)c2cc(N3CCN(C(=O)c4ccccc4)CC3)ccc21 | -8.97 |
| Cc1cc(C)c(NC(=O)COC(=O)/C=C/c2cccc(C(F)(F)F)c2)c(C)c1 | 6.47 |
| O=c1c2ccccc2n(Cc2ccc(Cl)cc2)c(=O)n1Cc1ccco1 | 9.63 |
| CCCCCCSc1cccc(-c2nc3ccc(C)cn3c2NCc2ccccc2)c1.O=C(O)C(F)(F)F | 10.4 |
| COC(=O)c1cc[n+](CC(=O)c2ccccc2)cc1.[Br-] | 2.61 |
| CN(CCO)CCC(=O)NC1(C)CS(=O)(=O)CC1S(=O)(=O)[O-].[Na+] (centres unmarked) | 8.12 |
| Cc1nn2c(-c3ccc(F)cc3)ccnc2c1Cl | 10.9 |
| Cc1nn(C)c(C(=O)N/N=C/c2ccc(Br)cc2)c1Cl | 12.7 |
| C=C(C)Cn1c(SCC(=O)N/N=C/c2c(O)ccc3ccccc23)nc2ccccc2c1=O | 12.3 |
| CC(C)N(CC(=O)Nc1ccc(Cl)cc1C(F)(F)F)C(=O)CCl | 12.5 |
| O=C1ON=C(c2ccccc2)/C1=C/c1ccco1 | 7.57 |
| COc1ccccc1-c1nnc2sc(-c3cc4ccccc4o3)nn12 | -0.794 |
| CCOc1ccc(N2CC(C(=O)NCc3cccc(C)c3)CC2=O)cc1 (centres unmarked) | -11.2 |
| CCCn1c(NCc2cccc(OC)c2OC)nc2ccccc21 | -1.9 |
| Cc1c(N)cccc1-n1cccc1 | 8.94 |
| CCn1cnc2c1c(=O)n(CC(=O)NCC(F)(F)F)c(=O)n2Cc1ccccc1 | -1.01 |
| COc1ccc(S(=O)(=O)N2CCOC23CCN(S(C)(=O)=O)CC3)cc1 | 5.25 |
| Cc1c(Cl)c([N+](=O)[O-])nn1CCCC(=O)Nc1sc2c(c1C(N)=O)CCC(C)C2 (centres unmarked) | 9.81 |
| CCOC(=O)N1CCC(Nc2ncnc3c2cnn3-c2ccc(C)cc2C)CC1 | 4.8 |
| CCCOc1ccc([N+](=O)[O-])c(N)c1 | 7 |
| CC(Oc1ccc(Cl)cc1)C(=O)NNC(=S)NC(=O)c1ccco1 (centres unmarked) | 6.4 |

| SMILES | hERG current change (%, negative = inhibition) at 1uM [%] |
| --- | --- |
| CCN1C(=O)/C(=C\c2ccc(F)cc2)N=C1SCC(=O)NCc1ccco1 | 7.14 |
| O=C(Nc1ccccc1)c1cc(S(=O)(=O)N2CCSCC2)ccc1Cl | 8.24 |
| Cc1ccc(C)c(NC(=S)NC(C)C(c2ccccc2)N2CCN(C)CC2)c1 (centres unmarked) | -11 |
| O=C(Cc1ccc(Cl)cc1Cl)Nc1ccncc1Cl | 11.5 |
| O=C(Cn1cnc(S(=O)(=O)N2CCCC2)c1)Nc1ccc(OC(F)(F)F)cc1 | 16.1 |
| Nc1ccccc1C(=O)Nc1nccs1 | 14.4 |
| CCOC(=O)C(=O)Nc1cc(C)nn1-c1nc2ccccc2[nH]1 | 14.5 |
| O=C(N/N=C/c1ccccn1)c1cc(-c2ccc(Br)cc2)nc2ccccc12 | 11.2 |
| CC(=O)Nc1ccc(NC(=O)c2cc[n+]([O-])cc2)cc1 | 12.1 |
| COc1cccc(/C=N/n2c(C3CCCCC3)n[nH]c2=S)c1O | 10.6 |
| C/C(=N/Nc1ccc([N+](=O)[O-])cc1)c1c[nH]c2ccccc12 | 19.3 |
| COc1ccc(CN2C(=O)c3ccccc3C(/C=N\OCc3ccc(F)cc3)C2=O)cc1 (centres unmarked) | 11.9 |
| COc1ccc(CCCc2nnc(SCC(=O)Nc3nc(C)cs3)n2C)cc1C | -3.04 |
| COc1ccc(CCN2C(=O)C(C)=C(C)C2=O)cc1OC | 12.8 |
| CC1CCCC(NC(=O)COC(=O)c2c[nH]c(=O)[nH]c2=O)C1C (centres unmarked) | 2.79 |
| CC(=O)Nc1nc2nc(-c3ccccc3)cc(-c3ccccc3)n2n1 | 15.1 |
| Cc1cccc(NC(=S)N2CCCN(c3ncccc3[N+](=O)[O-])CC2)c1 | 9.31 |
| CCO[C@@H]1OC(C(=O)N2CCN(Cc3ccc4c(c3)OCO4)CC2)=C[C@H](C2CCCCC2)[C@H]1CCCO | 2.05 |
| Cn1c(SCC(=O)NC2CCCCC2)nnc1-c1cccc(N)c1 | 12 |
| CN1C(=S)SC(C)(C)C1/[N+]([O-])=C/c1cccnc1 (centres unmarked) | 11.8 |
| Cn1c(=O)[nH]c(=O)c2c1nc(N1CCN(C(c3ccccc3)c3ccccc3)CC1)n2CCO | 10.1 |
| O=C(O)CCCCCNC(=O)c1ccccc1Br | 14.2 |
| Cc1nc(C(=O)NCc2ccccc2)sc1C1(C)CC(c2ccccc2)=NO1 (centres unmarked) | 9.43 |

| SMILES | hERG current change (%, negative = inhibition) at 1uM [%] |
| --- | --- |
| CCCn1c(SCC(=O)N(C)CC(=O)Nc2ccc(C)cc2)n[nH]c1=O | -2.4 |
| CC1=[N+](C)N(c2ccccc2)C(=O)C1N=Cc1ccccc1Cl (centres unmarked) | 3.3 |
| Clc1ccc(Nc2ncn[nH]2)c(Cl)c1 | 13.2 |
| COc1ccc(CN2CCN(C(=O)CCC(=O)Nc3nnc(CC(C)C)s3)CC2)cc1F | 5.66 |
| COc1ccc(-c2cc(-c3n[nH]c(=S)n3-c3cc(OC)ccc3OC)[nH]n2)cc1 | 11.9 |
| Cc1ccccc1Nc1nc(N)nc(CSc2nc3ccccc3c(=O)n2CCCO)n1 | 7.88 |
| CCCCOC(=O)/C(=C/C=C/c1ccccc1)NC(=O)c1ccccc1 | 8.86 |
| N#CCc1c(C#N)c(N)nc(Nc2ccccc2)c1C#N | 16.7 |
| O=C(COc1ccccc1)N=C1SC2CS(=O)(=O)CC2N1c1ccccc1 (centres unmarked) | 12.9 |
| S=C(NCc1ccco1)Nc1ccc(Cl)c(Cl)c1 | 5.09 |
| CCCc1ccc(OCC(O)CN2CCN(c3ccccc3)CC2)cc1.Cl (centres unmarked) | -9.04 |
| Cn1c(=O)[nH]c(=O)c2c1ncn2CCN1CCOCC1 | 8.41 |
| Cc1ccc(Cl)cc1C1=CC(=O)C[C@H](c2ccc(F)cc2)C1 | 12.1 |
| Oc1ccc(/C=N/NC(=S)Nc2cccnc2)cc1O | 11.7 |
| Cc1ccc(NC(=O)c2cc(S(=O)(=O)N3CCc4ccccc43)cn2C)cc1 | 1.73 |
| O=C1C(=C(O)c2ccccc2)C(=O)c2ccccc21 | -13.3 |
| COc1ccc(/C=N/NC(=O)CC(=O)NC2CCCCC2)cc1 | 12.9 |
| O=C(CN1CCC(C(=O)c2ccc(F)cc2)CC1)Nc1ccc(F)cc1 | -31.6 |
| COc1ccc(NC(=S)NN2CCN(C)CC2)cc1OC | 14.2 |
| COCCNC(=O)Cn1cc2c(n1)CCC(C)C2 (centres unmarked) | 14.1 |
| CCC(C)NC(=O)c1c(N)n(CC2CCCO2)c2nc3ccccc3nc12 (centres unmarked) | 11.7 |
| O=C1CCc2cc(S(=O)(=O)NCCC(=O)NC3CCCCC3)ccc2N1 | 11.2 |
| CCOC(=O)/C(=C\c1ccc(OC)c(OC)c1)C(=O)c1cccnc1 | 13.9 |

| SMILES | hERG current change (%, negative = inhibition) at 1uM [%] |
| --- | --- |
| CNC(=S)N1CCN(CCNC2=CC(=O)CC(C)(C)C2)CC1 | 18.7 |
| CC12CCC(=O)N1C(C(=O)Nc1nnc(SCc3ccccc3F)s1)CS2 (centres unmarked) | -13.9 |
| Cc1ccc2ncnc(Oc3ncccc3[N+](=O)[O-])c2c1 | 13.3 |
| CC(C)(C)NS(=O)(=O)c1ccc(NC(=O)NC2CCCCC2)cc1 | -2.32 |
| CCCOc1ccc(OC(=O)Cc2ccc(OC)c(S(=O)(=O)N3CCOCC3)c2)cc1 | 6.26 |
| O=c1[nH]c2ccc(NS(=O)(=O)c3ccc(F)c(Cl)c3)cc2[nH]1 | 11.2 |
| COc1cc(NS(=O)(=O)c2ccc(NS(=O)(=O)c3ccccc3)cc2)nc(OC)n1 | 13.8 |
| CCOC(=O)N1CCc2c(sc3ncn(Cc4ccc(F)cc4)c(=O)c23)C1 | 14.6 |
| CC(=O)Oc1ccc(C(=O)Nc2ccccc2NC(=O)c2ccc(OC(C)=O)cc2)cc1 | 7.48 |
| COc1ccc(CC(=O)NCCCCc2ccccc2)cc1OC | 8.03 |
| CCc1cc(=O)oc2cc(OCC(=O)O)c(Cl)cc12 | 12.7 |
| CCOC(=O)N1CCN(C(=O)c2ccc(Oc3ccc([N+](=O)[O-])cc3)cc2)CC1 | -44.4 |
| Cc1cc2ccccc2n2c(SCC(=O)NCc3cccs3)nnc12 | 8.13 |
| COc1cc(OC)c(NS(=O)(=O)c2c(C(=O)N3CCCCC3)c(C)n(C)c2C)cc1Cl | 2.25 |
| Cc1cc(NN)nc(NS(=O)(=O)c2ccccc2Cl)n1 | 11.7 |
| O=C(COC(=O)COc1ccc(Br)cc1)NCc1ccccc1 | 2.44 |
| CC1=C(C(=O)NCCN2CCN(C)CC2)C2(CCC(C)CC2)OC1=O (centres unmarked) | 7.67 |
| Cc1ccccc1C(=O)c1cccn1CC(=O)NCCN1CCN(c2cccc(C)c2C)CC1 | -14.3 |
| O=C(NC12CC3CC(CC(C3)C1)C2)c1ccc(-c2ccc(Cl)cc2)o1 | 10.9 |
| C/C(=N\NC(=O)c1cccc(S(=O)(=O)N2CCOCC2)c1)c1ccc(OC(F)F)cc1 | -10.6 |
